Residue numbers refer to the chain shown, from its start. The list shows a part of the results.
T1: RBFOX1 RRM RbFoxmut (Fox-RRM*) (Homo sapiens, UniProt Q9NWB1 109-208, R118D;E147R;N151S;E152T)
T1 sequence: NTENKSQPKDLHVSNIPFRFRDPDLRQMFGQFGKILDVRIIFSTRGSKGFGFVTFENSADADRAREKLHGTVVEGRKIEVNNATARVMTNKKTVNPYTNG

B1: GCGCGCC (DNA:RNA)
RNA: GGGAGACCGGAAUUCAGAUUGUCCGCGCGCCUUAAAUCCCGUCGUAGCCACCA
DNA 1: CAATCTGAATTCCGGTCTCCC
DNA 2: TGGTGGCTACGACGGGATT
B2: CCGGUUC (DNA:RNA)
RNA: B1 RNA with G25C, C28G, G29U, C30U
DNA 1: CAATCTGAATTCCGGTCTCCC
DNA 2: TGGTGGCTACGACGGGATT
B3: GCCCCCG (DNA:RNA)
RNA: B1 RNA with G27C, G29C, C31G
DNA 1: CAATCTGAATTCCGGTCTCCC
DNA 2: TGGTGGCTACGACGGGATT
B4: GGCCUAU (DNA:RNA)
RNA: B1 RNA with C26G, G27C, G29U, C30A, C31U
DNA 1: CAATCTGAATTCCGGTCTCCC
DNA 2: TGGTGGCTACGACGGGATT
B5: UCAUUUA (DNA:RNA)
RNA: B1 RNA with G25U, G27A, C28U, G29U, C30U, C31A
DNA 1: CAATCTGAATTCCGGTCTCCC
DNA 2: TGGTGGCTACGACGGGATT
B6: AUAAACA (DNA:RNA)
RNA: B1 RNA with G25A, C26U, G27A, C28A, G29A, C31A
DNA 1: CAATCTGAATTCCGGTCTCCC
DNA 2: TGGTGGCTACGACGGGATT
B7: AAGCCUA (DNA:RNA)
RNA: B1 RNA with G25A, C26A, G29C, C30U, C31A
DNA 1: CAATCTGAATTCCGGTCTCCC
DNA 2: TGGTGGCTACGACGGGATT
B8: ACCAUUG (DNA:RNA)
RNA: B1 RNA with G25A, G27C, C28A, G29U, C30U, C31G
DNA 1: CAATCTGAATTCCGGTCTCCC
DNA 2: TGGTGGCTACGACGGGATT
B9: UAAGAUA (DNA:RNA)
RNA: GGGAGACCGGAAUUCAGAUUGUCCUAAGAUAUUAAAUCCCGUCGUAGCCACCA
DNA 1: CAATCTGAATTCCGGTCTCCC
DNA 2: TGGTGGCTACGACGGGATT
B10: UACUAAG (DNA:RNA)
RNA: B9 RNA with A27C, G28U, U30A, A31G
DNA 1: CAATCTGAATTCCGGTCTCCC
DNA 2: TGGTGGCTACGACGGGATT
B11: GGCGUGA (DNA:RNA)
RNA: B9 RNA with U25G, A26G, A27C, A29U, U30G
DNA 1: CAATCTGAATTCCGGTCTCCC
DNA 2: TGGTGGCTACGACGGGATT
B12: UUUCCCA (DNA:RNA)
RNA: B1 RNA with G25U, C26U, G27U, G29C, C31A
DNA 1: CAATCTGAATTCCGGTCTCCC
DNA 2: TGGTGGCTACGACGGGATT
B13: GGUGCUU (DNA:RNA)
RNA: B9 RNA with U25G, A26G, A27U, A29C, A31U
DNA 1: CAATCTGAATTCCGGTCTCCC
DNA 2: TGGTGGCTACGACGGGATT
B14: ACUCCCU (DNA:RNA)
RNA: B1 RNA with G25A, G27U, G29C, C31U
DNA 1: CAATCTGAATTCCGGTCTCCC
DNA 2: TGGTGGCTACGACGGGATT
B15: GGUAUAU (DNA:RNA)
RNA: B1 RNA with C26G, G27U, C28A, G29U, C30A, C31U
DNA 1: CAATCTGAATTCCGGTCTCCC
DNA 2: TGGTGGCTACGACGGGATT
B16: UAGGAAU (DNA:RNA)
RNA: B9 RNA with A27G, U30A, A31U
DNA 1: CAATCTGAATTCCGGTCTCCC
DNA 2: TGGTGGCTACGACGGGATT
B17: ACUAAGC (DNA:RNA)
RNA: B1 RNA with G25A, G27U, C28A, G29A, C30G
DNA 1: CAATCTGAATTCCGGTCTCCC
DNA 2: TGGTGGCTACGACGGGATT
B18: GUCCGCC (DNA:RNA)
RNA: B1 RNA with C26U, G27C
DNA 1: CAATCTGAATTCCGGTCTCCC
DNA 2: TGGTGGCTACGACGGGATT
B19: GGUGGUA (DNA:RNA)
RNA: B9 RNA with U25G, A26G, A27U, A29G
DNA 1: CAATCTGAATTCCGGTCTCCC
DNA 2: TGGTGGCTACGACGGGATT
B20: AGGGCUG (DNA:RNA)
RNA: B9 RNA with U25A, A26G, A27G, A29C, A31G
DNA 1: CAATCTGAATTCCGGTCTCCC
DNA 2: TGGTGGCTACGACGGGATT
B21: AGCGCUU (DNA:RNA)
RNA: B9 RNA with U25A, A26G, A27C, A29C, A31U
DNA 1: CAATCTGAATTCCGGTCTCCC
DNA 2: TGGTGGCTACGACGGGATT
B22: CGGGCGG (DNA:RNA)
RNA: B1 RNA with G25C, C26G, C28G, G29C, C30G, C31G
DNA 1: CAATCTGAATTCCGGTCTCCC
DNA 2: TGGTGGCTACGACGGGATT
B23: GGUAGCG (DNA:RNA)
RNA: B1 RNA with C26G, G27U, C28A, C31G
DNA 1: CAATCTGAATTCCGGTCTCCC
DNA 2: TGGTGGCTACGACGGGATT
B24: GAAGGAC (DNA:RNA)
RNA: B1 RNA with C26A, G27A, C28G, C30A
DNA 1: CAATCTGAATTCCGGTCTCCC
DNA 2: TGGTGGCTACGACGGGATT
B25: CCCGACC (DNA:RNA)
RNA: B1 RNA with G25C, G27C, C28G, G29A
DNA 1: CAATCTGAATTCCGGTCTCCC
DNA 2: TGGTGGCTACGACGGGATT
B26: CCUACCC (DNA:RNA)
RNA: B1 RNA with G25C, G27U, C28A, G29C
DNA 1: CAATCTGAATTCCGGTCTCCC
DNA 2: TGGTGGCTACGACGGGATT
B27: CUCAGGA (DNA:RNA)
RNA: B1 RNA with G25C, C26U, G27C, C28A, C30G, C31A
DNA 1: CAATCTGAATTCCGGTCTCCC
DNA 2: TGGTGGCTACGACGGGATT
B28: CAUCUCA (DNA:RNA)
RNA: B1 RNA with G25C, C26A, G27U, G29U, C31A
DNA 1: CAATCTGAATTCCGGTCTCCC
DNA 2: TGGTGGCTACGACGGGATT
B29: UAUAGUC (DNA:RNA)
RNA: B9 RNA with A27U, G28A, A29G, A31C
DNA 1: CAATCTGAATTCCGGTCTCCC
DNA 2: TGGTGGCTACGACGGGATT
B30: GCUUUCU (DNA:RNA)
RNA: B1 RNA with G27U, C28U, G29U, C31U
DNA 1: CAATCTGAATTCCGGTCTCCC
DNA 2: TGGTGGCTACGACGGGATT
B31: UACCUCA (DNA:RNA)
RNA: B9 RNA with A27C, G28C, A29U, U30C
DNA 1: CAATCTGAATTCCGGTCTCCC
DNA 2: TGGTGGCTACGACGGGATT

Each binder was assayed against T1, RBFOX1 RRM RbFoxmut (Fox-RRM*) (assay: EMSA; HiTS-Eq, 1 nM pool, 10 min; buffer printed only for the single-RNA assays: 10 mM Tris pH 7.5, 150 mM NaCl, 3.4 mM EDTA, 0.001% NP-40, 30 C). Details: tags: His6 N-terminal (pET28a); label: 5' 32P.
Summary of the method: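 A pool of RNA with 7 randomized nucleotides, 5′-radiolabelled and with DNA-annealed flanks, was equilibrated at 1 nM for 10 min in 50 µL with purified RbFox RRM, wild type or mutant, across increasing protein concentrations. Free RNA was separated by 8% native PAGE, excised, reverse-transcribed, barcoded by PCR and sequenced. Relative association constants were obtained from read-count changes of each RNA species versus the control reaction and normalised to the cognate motif.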
In the case of B1, the binding signal is reported as 0.137 KA relative to UGCAUGU. B2 was tested, and the binding signal was 0.0893 KA relative to UGCAUGU. In the case of B3, the binding signal is reported as 0.0676 KA relative to UGCAUGU. For B4, the binding signal was 0.0696 KA relative to UGCAUGU. In the case of B5, the binding signal is reported as 0.15 KA relative to UGCAUGU. With B6 the binding signal was 0.124 KA relative to UGCAUGU. For B7, the binding signal was 0.0959 KA relative to UGCAUGU. In the case of B8, the binding signal is reported as 0.112 KA relative to UGCAUGU. With B9 the binding signal was 0.0797 KA relative to UGCAUGU. For B10, the binding signal was 0.0755 KA relative to UGCAUGU. In the case of B11, the binding signal is reported as 0.107 KA relative to UGCAUGU. In the case of B12, the binding signal is reported as 0.0641 KA relative to UGCAUGU. For B13, the binding signal was 0.0728 KA relative to UGCAUGU. For B14, the binding signal was 0.0521 KA relative to UGCAUGU. With B15 the binding signal was 0.101 KA relative to UGCAUGU. For B16, the binding signal was 0.11 KA relative to UGCAUGU. For B17, the binding signal was 0.109 KA relative to UGCAUGU. With B18 the binding signal was 0.105 KA relative to UGCAUGU. B19 was tested, and the binding signal was 0.149 KA relative to UGCAUGU. In the case of B20, the binding signal is reported as 0.275 KA relative to UGCAUGU. With B21 the binding signal was 0.0939 KA relative to UGCAUGU. B22 was tested, and the binding signal was 0.105 KA relative to UGCAUGU. B23 was tested, and the binding signal was 0.125 KA relative to UGCAUGU. With B24 the binding signal was 0.0308 KA relative to UGCAUGU. In the case of B25, the binding signal is reported as 0.0908 KA relative to UGCAUGU. In the case of B26, the binding signal is reported as 0.0698 KA relative to UGCAUGU. With B27 the binding signal was 0.0766 KA relative to UGCAUGU. B28 was tested, and the binding signal was 0.11 KA relative to UGCAUGU. For B29, the binding signal was 0.107 KA relative to UGCAUGU. In the case of B30, the binding signal is reported as 0.0425 KA relative to UGCAUGU. B31 was tested, and the binding signal was 0.138 KA relative to UGCAUGU.
